Paper PMC4336329 (PLoS ONE, 2015)
Screen size: about 310,000 compounds; about 2,200 (0.71%) showed an effect of 50% or more. Effects have a minus sign here. The list shows a part of the results.

Each compound was assayed against human ether-à-go-go-related gene (hERG) potassium channel (human, UniProt Q12809) (assay: primary screen, population patch clamp on CHO cells stably expressing hERG).
human ether-à-go-go-related gene (hERG) potassium channel, sequence (Q12809 whole entry, looked up): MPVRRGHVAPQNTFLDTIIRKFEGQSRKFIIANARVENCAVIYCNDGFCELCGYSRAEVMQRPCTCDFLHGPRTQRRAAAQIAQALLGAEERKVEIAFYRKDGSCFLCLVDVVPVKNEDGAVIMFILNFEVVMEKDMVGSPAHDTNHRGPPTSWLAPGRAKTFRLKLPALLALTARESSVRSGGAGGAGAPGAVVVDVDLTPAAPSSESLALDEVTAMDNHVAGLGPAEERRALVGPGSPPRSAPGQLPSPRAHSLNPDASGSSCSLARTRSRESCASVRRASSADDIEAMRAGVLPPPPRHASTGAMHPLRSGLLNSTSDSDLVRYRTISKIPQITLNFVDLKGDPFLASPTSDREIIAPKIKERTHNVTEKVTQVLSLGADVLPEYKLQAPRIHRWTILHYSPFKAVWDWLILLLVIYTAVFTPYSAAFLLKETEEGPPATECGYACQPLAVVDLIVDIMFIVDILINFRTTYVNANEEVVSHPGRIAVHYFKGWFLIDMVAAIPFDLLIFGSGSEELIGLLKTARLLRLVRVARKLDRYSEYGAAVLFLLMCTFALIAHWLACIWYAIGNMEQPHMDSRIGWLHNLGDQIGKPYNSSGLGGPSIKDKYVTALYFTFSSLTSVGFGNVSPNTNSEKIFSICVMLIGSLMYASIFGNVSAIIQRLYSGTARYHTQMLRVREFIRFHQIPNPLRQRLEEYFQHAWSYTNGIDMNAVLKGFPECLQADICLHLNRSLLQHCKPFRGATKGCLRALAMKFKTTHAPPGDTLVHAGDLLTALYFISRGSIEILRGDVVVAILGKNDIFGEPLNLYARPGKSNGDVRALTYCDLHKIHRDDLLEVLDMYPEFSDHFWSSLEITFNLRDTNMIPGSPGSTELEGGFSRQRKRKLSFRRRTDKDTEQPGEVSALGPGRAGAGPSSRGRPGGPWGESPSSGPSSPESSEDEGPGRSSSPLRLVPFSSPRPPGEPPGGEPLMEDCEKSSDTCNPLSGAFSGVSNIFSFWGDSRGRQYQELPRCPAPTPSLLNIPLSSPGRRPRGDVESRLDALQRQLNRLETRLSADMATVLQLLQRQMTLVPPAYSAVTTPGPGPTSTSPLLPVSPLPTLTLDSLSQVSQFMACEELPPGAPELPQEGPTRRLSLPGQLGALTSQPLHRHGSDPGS

Structure (SMILES)	hERG current change (%, negative = inhibition) at 1uM
COc1ccc(CNC(=O)CSc2n[nH]c(N)n2)cc1OC	-73.4%
Cc1ccc(O)c(CNc2nc3ccccc3n2C(C)C)c1	17.8%
CC(C)N1CCc2c(sc(NC(=O)Cc3ccccc3)c2C#N)C1.Cl	3.03%
S=C(NCCCn1ccnc1)Nc1cccc(Cl)c1	0.748%
O=C(NCc1ccccn1)C1C2C=CC(C2)C1C(=O)Nc1ccc(F)cc1 (stereo not shown)	0.921%
O=C(CCC1CCCC1)N1CCC(N2CCN(c3ccccc3)CC2)CC1	-41.6%
COc1cccc(-n2c(C)nc3c(cnn3-c3ccc(Cl)cc3)c2=O)c1	3.32%
Cc1sc2ncn(CC(=O)N3CCCCC3)c(=O)c2c1C	8.93%
CN(C)/N=C/C=C1\CCC/C(=C\c2ccc(F)c(F)c2)C1=O	12.6%
CCN(CC)C1CCN(C(=O)c2cc(COc3ccccc3SC)on2)C1 (stereo not shown)	-45.2%
COc1cc(Cl)c(C)cc1NC(=O)COC(=O)c1ccc(CN2CCCC2=O)cc1	-0.226%
O=C1CCC/C(=N\NC(=O)c2ccc(COc3ccccc3-c3ccccc3)cc2)C1	9.63%
O=C1C=CCCC1	16.3%
COc1cc(NC(=O)C2CC(=O)NC3=C2C(=O)CCC3)c(OC)cc1Cl (stereo not shown)	-7.92%
COc1ccccc1NC(=O)c1ccc(SCC(=O)NCc2ccccc2Cl)c([N+](=O)[O-])c1	8.8%
[2H]c1c([2H])c([2H])c(C(=O)c2sc(N3CCCCCC3)nc2-c2ccccc2)c([2H])c1[2H]	12.5%
Cc1cc(=O)[nH]c(-n2nc(C)cc2C)n1	5.9%
CN(CC(=O)Nc1ccccc1C(F)(F)F)C(=O)Cc1ccc(S(=O)(=O)N2CCOCC2)s1	2.7%
CC(C)OC(=O)CSc1nc(N)c(C#N)c(-c2ccco2)c1C#N	8.37%
CCOC(=O)C1CCCN(S(=O)(=O)c2ccc(NC(C)=O)cc2)C1 (stereo not shown)	17.9%
COC(=O)CNC(=O)Cc1c(C)n(C(=O)c2ccc(Cl)cc2)c2ccc(OC)cc12	7.67%
CC(=O)/C=C1/C(=O)Nc2ccccc21	-6.33%
Cc1c(NC(=O)C(=O)/C=C(/O)c2ccccc2)c(=O)n(-c2ccccc2)n1C	5.16%
O=C(/C=C/c1ccccc1)NC1CCCc2ccccc21 (stereo not shown)	28.4%
O=C(COc1cccc2c1CCN(Cc1ccccc1)C2=O)NCc1ccco1	-30.1%
COc1ccc(-c2csc(NC(=O)c3ccc(N4C(=O)CCC4=O)cc3)n2)cc1OC	6.6%
O=C(Nc1cccnc1Cl)c1cc2ccccc2o1	15.3%
COC(=O)C1=C(c2cccc(OCc3ccccc3)c2)C[C@@H]2CC[C@H]1N2C(=O)NCc1ccc(OC)c(OC)c1	15.3%

Structure (SMILES)	hERG current change (%, negative = inhibition) at 1uM
O=C(CCCN1C(=O)c2ccccc2C1=O)NCCN1C(=O)S/C(=C\c2cccs2)C1=O	3.64%
Cc1cccc(-c2nnc(N)s2)c1	10.9%
COc1ccc(C(=O)OC(COc2ccccc2)Cn2ccnc2)cc1 (stereo not shown)	0.723%
CC(C)c1ccc(S(=O)(=O)N2CCN(CC(=O)c3ccc(O)c(O)c3)CC2)cc1	5.18%
COc1cc(C2c3c(n[nH]c3C)C(=O)N2c2ccc(C)cc2)ccc1O (stereo not shown)	6.53%
Cc1ccc(NC2CCCN(C(=O)CCc3scnc3C)C2)cc1C (stereo not shown)	6.92%
CCNC(=S)NNC(=O)c1ccc(OC)cc1	10.2%
CCCN(C(=O)C(C)Oc1cccc(Cl)c1)c1c(N)n(Cc2ccccc2)c(=O)[nH]c1=O (stereo not shown)	8.88%
COc1cccc(CN2CC(C(=O)NCCc3ccccc3C(F)(F)F)CCC2=O)c1 (stereo not shown)	17.3%
Cc1ccc(Nc2c([N+](=O)[O-])c(=O)oc3ccccc23)cc1C	9.91%
Cc1ccccc1C(=O)NC1CCN(CC(=O)Nc2ccc(N(C)C)cc2)CC1	21.8%
Cc1ccc(Nc2nc(CSc3nnnn3-c3ccccc3)cc(=O)[nH]2)cc1	5.08%
CCOC(=O)CSc1ccc(S(=O)(=O)N(CC)CC)cc1[N+](=O)[O-]	1.42%
O=C(Cc1ccccc1)Nc1ncccc1Cl	11%
O=C(CN(C(=O)c1csnn1)c1cccc(Cl)c1)NC1CCCC1	2.99%
CCOc1ccc(NC(=O)CCC(=O)NNS(=O)(=O)c2ccccc2[N+](=O)[O-])cc1	8.59%
COc1ccc2c(C)nc(Nc3nc(-c4ccccc4)cc(=O)[nH]3)nc2c1	5.49%
Cc1ccc(-n2ncc3c(=O)n(CC(=O)NC4CCCC4)cnc32)cc1C	16.2%
Cc1ccc2cc(CCNC(=O)C(=O)c3c(C)[nH]c4ccccc34)c(=O)[nH]c2c1	-0.597%
CC(C)(C)CC(C)(C)NC(=S)Nc1ccc(S(=O)(=O)N2CCOCC2)cc1	2.38%
N#Cc1nc(-c2cccs2)oc1N1CCN(Cc2ccccc2)CC1	9.11%
COc1ccc(NC(=O)CC2C(=O)N(c3cccc(C)c3)C(=O)N2C2CCCCC2)cc1 (stereo not shown)	-4.48%
O=C(Cc1ccc(Cl)cc1)NCCc1cnc[nH]1	15.2%
COC(=O)C1=CN(Cc2ccc(OC)c(OC)c2)C=C(C(=O)OC)C1c1ccc(O)cc1	13.8%
CC(C)N(CCCNC(=O)c1nn(C)c2c1CS(=O)(=O)c1ccccc1-2)Cc1ccccc1	-0.191%
CCn1nnc2cc(C(=O)Nc3cc(OC)cc(OC)c3)ccc21	19.3%
Cc1ccccc1NC(=O)CN(c1ccc(F)cc1)S(C)(=O)=O	9.26%
